Assay results from the RNAGym collection of RNA variant scans (doi:10.7554/elife.90254).
Read counts are not given, so values of variants with three or more changes are uncertain.

B1: LINE1-mini (parent)
chain: GGCAGAGCUCAACACAGCGUGGCAAAGUGGCUGUGGCUAGACUGCC

Variants of: B1
Test: self-cleavage, relative activity (ratio to wild type); higher = more cleavage; in vitro, sequencing; the parent is a self-cleaving ribozyme

Row | Variant | self-cleavage
1 | A4U G22U C23A A24C G30C | 0.41
2 | A4U A6U G7C A12U C13U U28C | 0.07
3 | A4G G21U U28G | 0.18
4 | A4G U20G G22U C31U | 0.02
5 | A4U C8U C31G | 0.12
6 | A4G G7U C8A A11C G29A | 0.08
7 | A4U G5U G21U | 0.1
8 | A4U G5C C18G | 0.02
9 | A4U U28G G35A | 0.05
10 | A4U G7C G19C | 0.03
11 | A4G G35A C42U G44C | 0
12 | A4G C15G C23U | 0.08
13 | A4G G40A U43A G44U | 0.12
14 | A4G U20G U34C A41C | 0.11
15 | A4U G5A C18U C23U G33A C45U | 0.06
16 | A4G U28A G35C | 0.03
17 | A4U G22C C46A | 0.07
18 | A4U G19A C23A C31A | 0.06
19 | A4U G5U U9A G22A | 0.25
20 | A4G C31U U38A | 0.01
21 | A4U G19A A39G | 0.14
22 | A4U U9G C42G | 0.05
23 | A4U C23U C31U | 0.14
24 | A4U G22U G36U G40U | 0.3

Row | Variant | self-cleavage
25 | A4G G7A U34A | 0.23
26 | A4U A14G G21U U34G C37A U43C | 0.04
27 | A4G G30A G40U | 0.53
28 | A4G U9G G22U G33U | 0.26
29 | A4G U20C U34G | 0.06
30 | A4G G40C C42A | 0.06
31 | A4G C18A G19A C37U G44U | 0.06
32 | A4U C8G C18A G19A U28G | 0.03
33 | A4G G7C G17U C42U | 0.16
34 | A4G C13A A26G | 0.03
35 | A4U C15A U20C G40U G44A | 0.01
36 | A4U U9A U20G G27U G30C C46A | 0.35
37 | A4U G35C A39C C42U | 0.14
38 | A4U G7U G30U U38A | 0.39
39 | G5A A11C G19A G22U | 0.03
40 | A4U C13A U38C | 0.02
41 | A4U C18A C23U | 0.02
42 | A4U C8A U28C | 0.31
43 | A4U C15U C42U C46A | 0.2
44 | A4U C15U G19C U20C C42U | 0.15
45 | A4U U9C C10U A24G G33U | 0.01
46 | A4U C13U G17C G36C A39C C42A | 0.06
47 | A4U U20G G27C G30A G40U | 0.01
48 | A4G C18A C42A C46G | 0.01

Row | Variant | self-cleavage
49 | A4U A14U G17A C18U U34C G36U | 0.02
50 | A4G G7A C23A A24G | 0.23
51 | A4G G17C G27A G29C G30A | 0.19
52 | A4U G7U C15A A25G G36A | 0.08
53 | A4U C10U C46G | 0.12
54 | A4U A11U C23U G44U | 0.01
55 | A4U G7U A25G A26C | 0.17
56 | A4U G17C C23A | 0.15
57 | A4U U28G G33A | 0.07
58 | G5A A6C U20C U43G | 0
59 | A4U G35A G44A | 0.07
60 | A4G C37A U43A G44U | 0.05
61 | A4G C18U G36C G44U | 0.02
62 | A4G U28A U38A | 0.68
63 | A4G G21A A26U | 1.25
64 | A4G C45A C46G | 0.17
65 | A4U C8A G22C | 0.08
66 | A4U C31U C45A | 0.01
67 | A4U C31U C45U | 0.03
68 | A4G C18U G21U A24U G33U | 0.09
69 | A4U C13A U20A | 0.03
70 | A4U A6C C13U U28G U32G | 0.02
71 | A4U G21C A26C G33C U38A | 0.03
72 | A4U G21U C37U | 0

Row | Variant | self-cleavage
73 | A4U G17C G40C | 0.07
74 | A4U A6U U9A | 0.05
75 | A4G C15G G30U | 0.02
76 | A4G C13A G22C | 0.05
77 | A4U G5C G7A | 0.2
78 | A4U A6C C23U U28G G35U | 0.08
79 | G5A A6G C31A | 0.06
80 | A4G U9A C13G | 0.28
81 | A4U U9G U38G U43C C46U | 0.18
82 | A4U A6C C10A A25C U32G C46U | 0.01
83 | A4G G30C G33U | 0.03
84 | A4U C13G G19A G22U G27C G33A | 0.59
85 | A4U G5U A12G A24U G40U C42A | 0.03
86 | A4U C8A C15A | 0.16
87 | A4G C13U A24C C31U | 0.02
88 | A4U C10A G40A | 0.02
89 | A4U A14U C15A | 0.06
90 | A4U A24U G29U G30C C42A G44U | 0
91 | A4G U32G G33A | 0.08
92 | A4U C18U A41C C42U | 0.06
93 | G5A A11C C15G U20A U32C | 0.01
94 | A4G G17U G33U | 0.04
95 | A4U A26G U28C G36A C46U | 0.05
96 | A4G G5U C8U C31A G35U G36C A41U C42A | 0.28

Row | Variant | self-cleavage
97 | A4U C10A C42U U43A | 0
98 | G5A A6C C15U C37A U38C G44A | 0.04
99 | A4G C15G G21C | 0.01
100 | A4G C18U G19A G35A G44U | 0.02
101 | A4U A6C A16G G27A U28A G44U | 0.01
102 | A4G G22C A39U | 0.13
103 | A4U A6G U20A C23U G30C A39C G40U | 0.04
104 | A4U A24G C37A U38A | 0.03
105 | A4G U20A G22A G40C | 0.09
106 | A4U G17U A26U U43G | 0.03
107 | A4U A14U A16G G22A G33U | 0.09
108 | A4G G19C G35U | 0.06
109 | A4U G5U U9C U34C | 0.05
110 | A4G C18G U20A A26C | 1.77
111 | A4U G27C G29U G36U | 0.09
112 | A4U G33A C37G | 0.06
113 | A4U C37G U38G | 0.03
114 | A4U C10A G30C | 0.05
115 | A4U G35U C42A | 0.18
116 | A4U C8U C10A C46U | 0.05
117 | A4U C18G G22C G35U | 0.04
118 | A4G U20G C42U | 0.07
119 | A4U G19U U32G G33A C37A G44U | 0.02
120 | A4U C15U G22U U34G | 0.06

Row | Variant | self-cleavage
121 | A4U C8A G22U G27A U34G C46G | 0.02
122 | A4U A16U G17U | 0.06
123 | A4G C23U A25G | 0.14
124 | A4U C18G U20G A25G | 0.11
125 | A4U G22U U28C G29U | 0.09
126 | A4G G7U U38C C45G | 0.17
127 | A4U C13U G35A | 0.27
128 | A4G C15G G19U G36A | 0.02
129 | A4U C15U G35A G40A | 0.02
130 | A4G G29C C37G C42G U43G | 0.02
131 | A4U C8G U20G G35C C45A | 0.02
132 | A4U U28G C42A | 0.05
133 | A4G C10U U20G | 0.28
134 | A4U A24G C45A | 0.1
135 | A4G G5U U20C C23U G33C A41G | 0.03
136 | A4U A16G G30A A41U | 0.06
137 | A4G U9C C13A A14G G17C A24C A26C G33U | 0.02
138 | A4G U38A A39G | 0.33
139 | A4U C13U C46A | 0.06
140 | A4G G5A G17C G36U G44C | 0.05
141 | A4U G5C U28G | 0.31
142 | A4G C42G C45A | 0.01
143 | A4G G7C U9C G21U U43G | 0.02
144 | A4U G7U U43A | 0.12

Row | Variant | self-cleavage
145 | A4U A14C G17U C23U | 0.11
146 | A4U G5U G40A | 0.15
147 | A4U C15U A41G | 0.05
148 | A4U G5U C10A A14G A24U | 0.05
149 | A4U A6G G17U | 0.22
150 | A4U A24U C37U G40A C42A | 0.01
151 | A4G G29U U38G C42G | 0.44
152 | A4U A11U A16G A26C | 0.03
153 | A4U C10A G19C | 0.02
154 | A4U A6G G22U U28A | 0.25
155 | A4G G19A C23G | 0.51
156 | A4U G27U C31A G33A C37U | 0.03
157 | G5A A6U A16U U34A G35A A39U C46U | 0.23
158 | A4U G27A G29A A39C | 0.02
159 | A4G G17U G30U C45G | 0.03
160 | A4G G21A C37A | 2.37
161 | A4G G17U G21A A39C | 0.02
162 | A4G G5C G17A | 0.04
163 | A4U A14G G30A | 0.11
164 | A4U G27A C37U | 0.01
165 | A4G G21U U43A | 0.25
166 | A4U A6C G29A G30C | 0.03
167 | A4U G22A A26U C42G C45A | 0.01
